Laboratory results taken from article PMC6919601, “Identification of Plasmodium dipeptidyl aminopeptidase allosteric inhibitors by high throughput screening” (PLoS ONE, 2019).
Read-outs that look alike come from different tables or passages of the source.

What was measured:
DPAP1 [1] = target: T1, DPAP1 (Plasmodium falciparum, UniProt Q8IIJ9); assay: biochemical; assay type: biochemical; conditions: for Emax: 0.5 h, read-out: Maximum % Inhibition DPAP1
T1 sequence (Q8IIJ9 370-599 limits assumed): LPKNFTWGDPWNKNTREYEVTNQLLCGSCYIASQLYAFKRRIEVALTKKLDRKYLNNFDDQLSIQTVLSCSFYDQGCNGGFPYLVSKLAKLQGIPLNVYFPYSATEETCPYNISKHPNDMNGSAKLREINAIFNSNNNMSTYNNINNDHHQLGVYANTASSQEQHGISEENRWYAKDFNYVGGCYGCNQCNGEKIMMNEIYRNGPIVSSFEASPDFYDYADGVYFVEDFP
T1 sequence (Q8IIJ9 28-209 limits assumed): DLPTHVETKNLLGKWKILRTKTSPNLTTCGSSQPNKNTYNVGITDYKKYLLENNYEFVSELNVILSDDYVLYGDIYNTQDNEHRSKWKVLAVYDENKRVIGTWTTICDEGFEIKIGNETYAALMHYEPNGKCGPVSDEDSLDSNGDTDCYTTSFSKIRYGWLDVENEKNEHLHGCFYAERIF
T1 sequence (Q8IIJ9 600-700 limits assumed): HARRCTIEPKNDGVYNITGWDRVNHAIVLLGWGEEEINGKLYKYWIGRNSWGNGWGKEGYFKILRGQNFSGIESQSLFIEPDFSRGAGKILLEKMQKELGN

P. falciparum = assay: Standard 72 h parasite replication assay; assay type: cell-based, Plasmodium falciparum; conditions: Plasmodium falciparum, 72h replication assay; for inhibition at 100 µM: read-out: Pf % Inh @ 100 μM; for EC50: 3 biological replicates, read-out: Pf EC50
DPAP1 [2] = target: T1, DPAP1; assay: biochemical; assay type: biochemical; conditions: for DPAP1 inhibition Model: COM competitive, UNC uncompetitive, P-M partial mixed, P-C partial competitive, P-NC partial non-competitive, P-U partial uncompetitive; for DPAP1 α: factor by which Km is modified at saturating inhibitor; for DPAP1 β: factor by which kcat (Vmax) is modified at saturating inhibitor; for Ki: global fit to MOI model, standard error of fit in parentheses
CatC = CatC (Bos taurus, UniProt Q3ZCJ8); assay: Mechanism of inhibition studies, CatC; assay type: biochemical, bovine; conditions: for CatC inhibition Model: COM competitive, UNC uncompetitive, P-M partial mixed, P-C partial competitive, P-NC partial non-competitive, P-U partial uncompetitive; for CatC α: factor by which Km is modified at saturating inhibitor
FP3 [3] = target: T2, FP3 (Plasmodium falciparum, UniProt Q8IIL0); assay: biochemical; assay type: biochemical; conditions: for FP3 inhibition Model: COM competitive, UNC uncompetitive, P-M partial mixed, P-C partial competitive, P-NC partial non-competitive, P-U partial uncompetitive; for FP3 α: factor by which Km is modified at saturating inhibitor
T2 sequence (Q8IIL0 243-492): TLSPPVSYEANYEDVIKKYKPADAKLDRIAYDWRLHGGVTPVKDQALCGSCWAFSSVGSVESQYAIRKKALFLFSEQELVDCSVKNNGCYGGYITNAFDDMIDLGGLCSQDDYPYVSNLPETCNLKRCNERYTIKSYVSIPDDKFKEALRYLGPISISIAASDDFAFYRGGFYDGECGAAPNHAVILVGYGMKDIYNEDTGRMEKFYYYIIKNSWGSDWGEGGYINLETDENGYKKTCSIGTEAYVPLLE

DPAP1 [4] = target: T1, DPAP1; assay: biochemical; assay type: biochemical; conditions: for inhibition at 10 µM: read-out: DPAP1 % Inhibition @ 10 uM
[5] = system: WI-38 primary lung fibroblast; conditions: 10 uM; ref SMDC Assay #440; cited from earlier work
DPAP3 = DPAP3 (Plasmodium falciparum, UniProt Q8I1Y2); assay: biochemical; conditions: for Emax: 0.5 h, read-out: Maximum % Inhibition DPAP3
FP3 [6] = target: T2, FP3; assay: biochemical; conditions: for Emax: 0.5 h, read-out: Maximum % Inhibition FP3, substrate at Km
[7] = system: WI-38 primary lung fibroblast; assay: cells; parameters: Cell toxicity screen in WI-38 primary lung fibroblasts at 10 uM (SMDC assay 440); conditions: Homo sapiens, sheet All cpds;, SMDC cell toxicity assay 440
bovine CatC = bovine CatC (Bos taurus, UniProt Q3ZCJ8); assay: Dose response inhibition assay, CatC with GR-AMC substrate; conditions: for Emax: 0.5 h, read-out: Maximum % Inhibition CatC, substrate at Km
FP3 [8] = target: T2, FP3; conditions: for IC50 FP3: FP3 1 nM, Z-LR-AMC at Km (20 μM), N.I. = no inhibition
[9] = system: human foreskin fibroblast cells; assay: Cytotoxicity assay, CellTiter-Glo; conditions: 24h treatment, 4 biological replicates
[10] = VR-ACC at Km, > = inhibition at the highest concentration, no baseline reached
[11] = 10 μM compound, parasite lysates, (PR)2Rho, 30 min end-point
[12] = factor by which kcat (Vmax) is modified at saturating inhibitor

Sequence of bovine CatC (Q3ZCJ8 231-394 limits assumed): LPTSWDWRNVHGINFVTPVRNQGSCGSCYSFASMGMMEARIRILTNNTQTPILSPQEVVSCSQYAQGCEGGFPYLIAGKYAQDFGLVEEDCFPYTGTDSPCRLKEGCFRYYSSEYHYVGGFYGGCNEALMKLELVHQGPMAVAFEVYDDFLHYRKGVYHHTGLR
Sequence of bovine CatC (Q3ZCJ8 25-134 limits assumed): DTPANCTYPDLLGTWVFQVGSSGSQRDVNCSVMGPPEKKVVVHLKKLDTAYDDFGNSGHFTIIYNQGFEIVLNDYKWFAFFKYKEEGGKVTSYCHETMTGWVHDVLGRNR
Sequence of bovine CatC (Q3ZCJ8 395-463 limits assumed): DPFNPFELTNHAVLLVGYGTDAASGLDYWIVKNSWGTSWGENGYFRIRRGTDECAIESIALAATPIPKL
Sequence of CatC (Q3ZCJ8 231-394 limits assumed): as the sequence (Q3ZCJ8 231-394 limits assumed) above
Sequence of CatC (Q3ZCJ8 25-134 limits assumed): as the sequence (Q3ZCJ8 25-134 limits assumed) above
Sequence of CatC (Q3ZCJ8 395-463 limits assumed): as the sequence (Q3ZCJ8 395-463 limits assumed) above
Sequence of DPAP3 (Q8I1Y2 entry or part of it): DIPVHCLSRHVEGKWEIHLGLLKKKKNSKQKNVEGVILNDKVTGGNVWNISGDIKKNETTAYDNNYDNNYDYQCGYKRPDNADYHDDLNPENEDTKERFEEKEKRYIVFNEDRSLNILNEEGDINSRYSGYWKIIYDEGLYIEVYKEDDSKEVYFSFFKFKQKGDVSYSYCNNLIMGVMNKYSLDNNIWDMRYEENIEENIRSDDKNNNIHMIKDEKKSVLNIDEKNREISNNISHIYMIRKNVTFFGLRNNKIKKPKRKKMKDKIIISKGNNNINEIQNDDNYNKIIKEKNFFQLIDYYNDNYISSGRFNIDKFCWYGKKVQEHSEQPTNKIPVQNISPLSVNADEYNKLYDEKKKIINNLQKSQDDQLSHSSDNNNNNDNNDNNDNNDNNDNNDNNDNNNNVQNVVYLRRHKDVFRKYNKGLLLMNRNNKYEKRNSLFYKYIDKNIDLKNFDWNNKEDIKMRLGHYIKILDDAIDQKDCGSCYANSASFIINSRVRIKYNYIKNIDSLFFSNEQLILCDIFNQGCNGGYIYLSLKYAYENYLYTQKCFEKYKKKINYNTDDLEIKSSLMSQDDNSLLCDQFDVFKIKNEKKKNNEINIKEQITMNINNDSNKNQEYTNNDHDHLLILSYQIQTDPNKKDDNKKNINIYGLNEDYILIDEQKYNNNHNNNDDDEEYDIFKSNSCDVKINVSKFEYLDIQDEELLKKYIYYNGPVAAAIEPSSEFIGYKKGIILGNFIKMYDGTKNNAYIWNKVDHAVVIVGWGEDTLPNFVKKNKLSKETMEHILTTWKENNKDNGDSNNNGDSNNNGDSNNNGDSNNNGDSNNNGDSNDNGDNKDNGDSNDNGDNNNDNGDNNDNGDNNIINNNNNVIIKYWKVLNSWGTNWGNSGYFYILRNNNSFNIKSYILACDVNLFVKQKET

Row | Compound | IC50 (DPAP1 [1]) [µM] | Emax (DPAP1 [1]; [10]) [%] | inhibition at 100 µM (P. falciparum) [%] | inhibition at 10 µM (DPAP1 [4]; [11]) [%] | Cell Toxicity WI-38 primary lung fibroblast %Inhibition @ 10 uM [5] [%] | Emax (DPAP3) [%] | IC50 (FP3 [6]) [µM] | Emax (FP3 [6]) [%] | inhibition at 10 µM [7] [%] | IC50 (bovine CatC) [µM] | Emax (bovine CatC) [%] | further results
1 | N#CC1=C(N)SC(N)=C(C#N)C1c1ccccc1 [SMDC31843, NC1=C(C#N)C(C(=C(N)S1)C#N)c2ccccc2] | 2.2 | 71 | 24 | 71 | 12 | 100 | 5.7 | 100 | 11.6 | ~25 | > 75 | DPAP1 inhibition Model (DPAP1 [2]): P-C; DPAP1 α (DPAP1 [2]): 5.6 (0.7); DPAP1 β (DPAP1 [2]): = 1; Ki (DPAP1 [2]): 6.2 µM; CatC inhibition Model (CatC): P-M; CatC α (CatC): < 1; CatC α (CatC; listed as 31843): 0.33 (0.06); Ki (CatC; global fit to MOI model, standard error of fit in parentheses, read-out: CatC Ki): 140 µM; FP3 inhibition Model (FP3 [3]): uncompetitive; FP3 inhibition Model (FP3 [3]; listed as 31843): UNC; Ki (FP3 [3]; global fit to MOI model, standard error of fit in parentheses, read-out: FP3 Ki): 14.2 µM; IC50 (DPAP3): 30 µM
2 | Cc1nc(SCC(=O)O)c(C#N)c(C)c1C [SMDC39848, Cc1nc(SCC(=O)O)c(C#N)c(C)c1C] | 34 | 94 | 13 | 73 | 11 | > 50 |  |  | 10.8 | ~100 | > 50 | IC50 FP3 (FP3 [8]): N.I.
3 | CC(Oc1cccc(Cl)c1)C(=O)Nc1sc2c(c1C(N)=O)CCCCC2 (centres unmarked) [SMDC106517, CC(Oc1cccc(Cl)c1)C(=O)Nc2sc3CCCCCc3c2C(=O)N] | 5.7 | 67 | 83 | 61 | 6 | 100 | 7.2 | 100 |  | ~100 | > 50 | EC50 (P. falciparum): 15 µM; DPAP1 inhibition Model (DPAP1 [2]): P-M; DPAP1 α (DPAP1 [2]): 1.3 (0.2); DPAP1 β (DPAP1 [2]): 0.85 (0.05); Ki (DPAP1 [2]): 1 µM; Tox EC50 / Cytox EC50 [9]: 160 (40) μM
4 | NC(=O)c1c(NC(=O)COc2ccc(Cl)cc2)sc2c1CCCCC2 [SMDC106958, NC(=O)c1c2CCCCCc2sc1NC(=O)COc3ccc(Cl)cc3] | 80 | 85 | 25 | 65 | 1.3 | > 50 | 6.5 | 100 |  | ~100 | > 50 | 
5 | Cn1cc(Br)c(C(=O)Nc2sc3c(c2C(N)=O)CCCCC3)n1 [SMDC111619, Cn1cc(Br)c(n1)C(=O)Nc2sc3CCCCCc3c2C(=O)N] | ~100 | > 50 | 35 | 52 | -5 |  | 18 | 100 |  | ~50 | > 80 | 
6 | Cc1ccc(NC(=O)CN2C(=O)S/C(=C\c3ccccc3O)C2=O)cc1 [SMDC112370, Cc1ccc(NC(=O)CN2C(=O)S\C(=C/c3ccccc3O)\C2=O)cc1] | 0.6 | 42 | 6 | 51 | 14 | 100 | 21 | 100 |  | 13.5 | 64 | 
7 | CCc1nccn1C(=O)c1cnn2c(C(F)F)cc(-c3ccccc3)nc12 [SMDC158691, CCc1nccn1C(=O)c2cnn3c(cc(nc23)c4ccccc4)C(F)F] | 18 | 88 | 88 | 76 | 5.7 |  | 2.5 | 100 |  | 9 | 91 | EC50 (P. falciparum): 9 µM; Tox EC50 / Cytox EC50 [9]: 70 (8) μM
8 | Cn1c(S)nc2c(=O)oc3ccccc3c21 [SMDC168313, Cn1c(S)nc2C(=O)Oc3ccccc3c12] | 1.8 | 78 | 20 | 57 | 12 |  | 6.3 | 100 | 12.2 | ~100 | > 50 | DPAP1 inhibition Model (DPAP1 [2]): P-C; DPAP1 α (DPAP1 [2]): 2.8 (0.2); DPAP1 β (DPAP1 [2]): = 1; Ki (DPAP1 [2]): 4.1 µM
9 | CCN(C(=O)c1ccco1)c1nc(-c2ccccc2)cs1 [SMDC168314, CCN(C(=O)c1occc1)c2nc(cs2)c3ccccc3] | 200 | 100 | 35 | 73 | 13 | > 50 |  |  | 12.7 |  |  | IC50 FP3 (FP3 [8]): N.I.; IC50 CatC (bovine CatC; CatC 1 nM, GR-AMC at Km (40 μM), N.I. = no inhibition): N.I.
10 | COc1ccc2nc3sc(C(=O)NCCCN4CCc5ccccc5C4)cc3cc2c1 [SMDC168384, COc1ccc2nc3sc(cc3cc2c1)C(=O)NCCCN4CCc5ccccc5C4] |  |  |  | 65 | 12 |  |  |  | 11.6 |  |  | 
11 | CN1CSC2=C(C#N)C(c3ccccc3Cl)CC(=O)N2C1 (centres unmarked) [SMDC170123, CN1CSC2=C(C#N)C(CC(=O)N2C1)c3ccccc3Cl] |  |  | 64 |  | 5.5 | 11 | 0.093 | 80 |  | 0.12 | 48 | Emax (DPAP1 [1]): 78%; EC50 (P. falciparum): > 100 µM; DPAP1 inhibition Model (DPAP1 [2]): P-M; DPAP1 α (DPAP1 [2]): 4.3 (1.3); DPAP1 β (DPAP1 [2]): > 1; DPAP1 β (DPAP1 [2]; listed as 170123): 1.4 (0.3); Ki (CatC): 0.95 µM; CatC inhibition Model (CatC): P-NC; CatC α (CatC): = 1; CatC β (CatC; [12]): 0.66 (0.03); Ki (FP3 [3]): 3.8 µM; FP3 inhibition Model (FP3 [3]): P-M; FP3 α (FP3 [3]): < 1; FP3 α (FP3 [3]; listed as 170123): 0.38 (0.09); FP3 β (FP3 [3]; [12]): 0.23 (0.03); DPAP Primary hit (Hit = 1) (DPAP1 [4]; 10 μM HTS, 0 not defined): 1; inhibition at 10 µM (DPAP1 [4]): 57%; Selectivity towards FP3 compared to FP2 (FP3 [8]; ratio of IC50 values): more than 50 fold; IC50 (DPAP3): 1 µM
12 | CCOc1ccc(C(=O)CCNC(C(=O)O)C(C)CC)cc1 (centres unmarked) [SMDC197673, CCOc1ccc(cc1)C(=O)CCNC(C(C)CC)C(=O)O] |  |  |  | 71 | 11 |  |  |  | 11.4 |  |  | 
13 | N#Cc1c(C(F)(F)F)cc(-c2cccs2)nc1SCC(=O)N1CCOCC1 [compound 97214] |  |  |  |  |  |  |  |  | -2 |  |  | 
14 | O=C(c1cccnc1)c1conc1C(=O)c1ccc(Br)cc1 [compound 112054] |  |  |  |  |  |  |  |  | 11.9 |  |  | 
